Measurements: US20230120736A1, “ANTI-CD98 ANTIBODIES AND ANTIBODY DRUG CONJUGATES” (AbbVie Inc., priority 2016, published 2023)
Where a chain is given by its changes, count along the chain named.

B1: CD98 (CL-huAb104)-TX (conjugate)
heavy: EVQLVESGGGLVQPGGSLRLSCATSGFTFIDYYMSWVRQAPGKGLEWLGFIRNKAYGYTTEYSASVKGRFTISRDNSKSILYLQMNSLKTEDTAVYYCTRDRPAWFVYWGQGTLVTVSSASTKGPSVFPLAPSSKSTSGGTAALGCLVKDYFPEPVTVSWNSGALTSGVHTFPAVLQSSGLYSLSSVVTVPSSSLGTQTYICNVNHKPSNTKVDKKV[omitted - human IgG1 Fc with changes]
light: DIVMTQTPLSLPVTPGEPASISCKSSQSLLYSSNQKNYLAWYLQKPGQSPQLLIYWASTRESGVPDRFSGSGSGTDFTLKISRVEAEDVGVYYCQQYYSYPYTFGGGTKVEIKRTVAAPSVFIFPPSDEQLKSGTASVVCLLNNFYPREAKVQWKVDNALQSGNSQESVTEQDSKDSTYSLSSTLTLSKADYEKHKVYACEVTHQGLSSPVTKSFNRGEC
B2: CD98 (CL-huAb110)-AAA (conjugate)
heavy: EVQLVQSGAEVKKPGASVKVSCKASGFTFSDYTMAWVRQAPGQGLEWVATIIYDARGTYYRDAVKGRFTITRDNSTSTLYLELSSLRSEDTAVYYCARQSDDTYYYWGYFDYWGQGTMVTVSSASTKGPSVFPLAPSSKSTSGGTAALGCLVKDYFPEPVTVSWNSGALTSGVHTFPAVLQSSGLYSLSSVVTVPSSSLGTQTYICNVNHKPSNTKVDKKV[omitted - human IgG1 Fc with changes]
light: B1 light with S22N, Y31F, S33G, E61Q, V91I, Y100S, G106Q, V110L
B3: CD98 (CL-huAb104)-YY (conjugate)
heavy: EVQLVESGGGLVQPGGSLRLSCATSGFTFIDYYMSWVRQAPGKGLEWLGFIRNKAYGYTTEYSASVKGRFTISRDNSKSILYLQMNSLKTEDTAVYYCTRDRPAWFVYWGQGTLVTVSSASTKGPSVFPLAPSSKSTSGGTAALGCLVKDYFPEPVTVSWNSGALTSGVHTFPAVLQSSGLYSLSSVVTVPSSSLGTQTYICNVNHKPSNTKVDKKV[omitted - human IgG1 Fc with changes]
light: B1 light
B4: CD98 (CL-huAb108)-AAD (conjugate)
heavy: EVQLVQSGAEVKKPGASVKVSCKASGFTFSDYTMAWVRQAPGQGLEWVATIIYSGRGTYYRDAVKGRFTITRDNSTSTLYLELSSLRSEDTAVYYCARQSDDTYYYWGYFDYWGQGTMVTVSSASTKGPSVFPLAPSSKSTSGGTAALGCLVKDYFPEPVTVSWNSGALTSGVHTFPAVLQSSGLYSLSSVVTVPSSSLGTQTYICNVNHKPSNTKVDKKV[omitted - human IgG1 Fc with changes]
light: B1 light with S22N, Y31F, S33G, E61Q, V91I, S99D, Y100V, G106Q, V110L
modifications: non-natural residues
B5: CD98 (CL-huAb110)-TX (conjugate)
heavy: EVQLVQSGAEVKKPGASVKVSCKASGFTFSDYTMAWVRQAPGQGLEWVATIIYDARGTYYRDAVKGRFTITRDNSTSTLYLELSSLRSEDTAVYYCARQSDDTYYYWGYFDYWGQGTMVTVSSASTKGPSVFPLAPSSKSTSGGTAALGCLVKDYFPEPVTVSWNSGALTSGVHTFPAVLQSSGLYSLSSVVTVPSSSLGTQTYICNVNHKPSNTKVDKKV[omitted - human IgG1 Fc with changes]
light: B1 light with S22N, Y31F, S33G, E61Q, V91I, Y100S, G106Q, V110L
B6: CD98 (CL-huAb102)-LB (conjugate)
heavy: EVQLVESGGGLVQPGGSLRLSCATSGFTFIDYYMSWVRQAPGKGLEWLGFIRNKANRYTTEYSASVKGRFTISRDNSKSILYLQMNSLKTEDTAVYYCTRDRPAWFVYWGQGTLVTVSSASTKGPSVFPLAPSSKSTSGGTAALGCLVKDYFPEPVTVSWNSGALTSGVHTFPAVLQSSGLYSLSSVVTVPSSSLGTQTYICNVNHKPSNTKVDKKV[omitted - human IgG1 Fc with changes]
light: B1 light
B7: CD98 (CL-huAb102)-TV (conjugate)
heavy: EVQLVESGGGLVQPGGSLRLSCATSGFTFIDYYMSWVRQAPGKGLEWLGFIRNKANRYTTEYSASVKGRFTISRDNSKSILYLQMNSLKTEDTAVYYCTRDRPAWFVYWGQGTLVTVSSASTKGPSVFPLAPSSKSTSGGTAALGCLVKDYFPEPVTVSWNSGALTSGVHTFPAVLQSSGLYSLSSVVTVPSSSLGTQTYICNVNHKPSNTKVDKKV[omitted - human IgG1 Fc with changes]
light: B1 light
B8: CD98 (CL-huAb104)-LB (conjugate)
heavy: EVQLVESGGGLVQPGGSLRLSCATSGFTFIDYYMSWVRQAPGKGLEWLGFIRNKAYGYTTEYSASVKGRFTISRDNSKSILYLQMNSLKTEDTAVYYCTRDRPAWFVYWGQGTLVTVSSASTKGPSVFPLAPSSKSTSGGTAALGCLVKDYFPEPVTVSWNSGALTSGVHTFPAVLQSSGLYSLSSVVTVPSSSLGTQTYICNVNHKPSNTKVDKKV[omitted - human IgG1 Fc with changes]
light: B1 light
B9: CD98 (CL-huAb110)-TV (conjugate)
heavy: EVQLVQSGAEVKKPGASVKVSCKASGFTFSDYTMAWVRQAPGQGLEWVATIIYDARGTYYRDAVKGRFTITRDNSTSTLYLELSSLRSEDTAVYYCARQSDDTYYYWGYFDYWGQGTMVTVSSASTKGPSVFPLAPSSKSTSGGTAALGCLVKDYFPEPVTVSWNSGALTSGVHTFPAVLQSSGLYSLSSVVTVPSSSLGTQTYICNVNHKPSNTKVDKKV[omitted - human IgG1 Fc with changes]
light: B1 light with S22N, Y31F, S33G, E61Q, V91I, Y100S, G106Q, V110L

Test: Size exclusion chromatography, % aggregate fraction of ADC
Format: physicochemical
Details: ADCs of Table 27
Experimental: Size exclusion chromatography was performed using a Shodex KW802.5 column in 0.2M potassium phosphate pH 6.2 with 0.25 mM potassium chloride and 15% IPA at a flow rate of 0.75 ml/min. The peak area absorbance at 280 nm was determined for each of the high molecular weight and monomeric eluents by integration of the area under the curve. The % aggregate fraction of the conjugate sample was determined by dividing the peak area absorbance at 280 nm for the high molecular weight eluent by the sum of the peak area absorbances at […] of the high molecular weight and monomeric eluents multiplied by 100%.

Row | Molecule | % agg by SEC [%]
1 | B1 | 0.7
2 | B2 | 15.2
3 | B3 | 12.6
4 | B4 | 3.3
5 | B5 | 2.4
6 | B6 | 4.5
7 | B7 | 1.7
8 | B8 | 13.6
9 | B9 | 2

Test: DAR determination by LC-MS
Details: ADCs of Table 27
Experimental: LC-MS analysis was performed using an Agilent 1100 HPLC system interfaced to an Agilent LC/MSD TOF 6220 ESI mass spectrometer. The ADC was reduced with 5 mM (final concentration) BOND-BREAKER TCEP solution (Thermo Scientific, Rockford, Ill.), loaded onto a Protein Microtrap (Michrom Bioresorces, Auburn, Calif.) desalting cartridge, and eluted with a gradient of 10% B to 75% B in 0.2 minutes at ambient temperature. Mobile phase A was H2O with 0.1% formic acid (FA), mobile phase B was acetonitrile with 0.1% FA, and the flow rate was 0.2 ml/min. Electrospray-ionization time-of-flight mass spectra of the co-eluting light and heavy chains were acquired using Agilent MassHunter™ acquisition software. The extracted intensity vs. m/z spectrum was deconvoluted using the Maximum Entropy feature of MassHunter software to determine the mass of each reduced antibody fragment. DAR was calculated from the deconvoluted spectrum by summing intensities of the naked and modified peaks for the light chain and heavy chain, normalized by multiplying intensity by the number of drugs attached. The summed, normalized intensities were divided by the sum of the intensities, and the summing results for two light chains and two heavy chains produced a final average DAR value for the full ADC.

Row | Molecule | DAR by MS
10 | B1 | 2.6
11 | B2 | 1.0
12 | B3 | 2.1
13 | B4 | 2.6
14 | B5 | 2.0
15 | B6 | 2
16 | B7 | 3.9
17 | B8 | 2.2
18 | B9 | 3.0
